# In the supplement of paper PMC10338343:
# ± gives the standard deviation. This is a selection; strong and weak results do not stand in their true shares.
# Test system: MIWI (PIWIL1) piRISC loaded with piRNA #1 (30 nt)
# Test: pre-steady-state target cleavage rate (min^-1); MIWI and MILI are mouse PIWI proteins and EfPiwi is from a freshwater sponge; tags in brackets are library labels; higher = faster piRNA-guided slicing of the target
# Conditions: guide: piRNA #1 5'p-UGAGGUAGUAGGUUGUAUAGUAUCCAGAGG; auxiliary factor: 500 nM mouse GTSF1
# In short: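 In Cleave-'n-Seq, a transcribed, DNA-blocked target RNA library (0.1 nM) was combined with 1 nM active affinity-purified piRISC bearing one synthetic guide, with or without 500 nM GTSF1 partner protein. Reactions ran in HEPES–potassium acetate buffer at 33 °C for 0–8 or 0–960 min. Uncleaved targets were sequenced and normalised to depth and to weakly complementary targets, three trials were pooled, and k3 was capped at 0.0001 min^-1. The pre-steady-state cleavage rate was obtained by fitting a burst-and-steady-state model.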
row,Sequence,pre-steady-state target cleavage rate
1,GGAGACCAAACUAUAGAACCUACUACCUCA,0.68 ± 0.071
2,GGAGAGGAUACUUUACAACCUACUACGUCA,0.322 ± 0.03
3,GGAGACCUAUCUAUAGAUCCUACUACCUCA,0.0433 ± 0.0069
4,GGACUCGAUACUAUUCAACCUACUACCUCA,1.54 ± 0.1
5,CCACUGGAUACUAUACAACCUACUACCUGA,0.806 ± 0.081
6,GGAGACCUAUCUAUAGAACCUACUACCUGA,0.0987 ± 0.022
7,GGUCUGGAAACUAUACAACCUAGUACCUCA,0.484 ± 0.077
8,GGAGACCGUACUAUACAACCUACUACCUCA,1.49 ± 0.12
9,GGAGACCUAACUAGACAACCUACUACCUCA,0.56 ± 0.06
10,GGAGACCAUACUAUACAACCUAAUACCUCA,1.11 ± 0.1
11,GGUCUGGAUACUAUGACAACCUACUACCUCA,1.63 ± 0.11
12,GGACUGGAUACUAUCACAACCUACUACCUCA,1.36 ± 0.13
13,CCUCUGGAUCACUAUACAACCUACUACCUCA,1.1 ± 0.093
14,GGAGACCUAUCUAUACAAGCUACUUCCUCA,0.155 ± 0.02
15,GGUCUGGAUACUAUACUACCUAGUACCUCA,0.389 ± 0.075
16,GGAGACCUAUGAUAACAACCUAGUACCACA,< 0.0001
17,GCUCUGGAUACUAUACAACCAAGUACCUCA,0.0446 ± 0.007
18,GGAGACCUAACUAUACAACCUACUACGAGA,0.305 ± 0.087
19,GGAGACCUUACGUAUACAACCUACUACCUCA,0.383 ± 0.055
20,CCUCAGGAUACUAUACAACCUAGUACCUCA,0.13 ± 0.025

row,Sequence,pre-steady-state target cleavage rate
1,GGAGACGAUACUAUACAACCUGACUACCUCA,0.00519 ± 0.0015
2,GGAGACCUUACUAUACAACCUACUACGUCA,0.997 ± 0.068
3,GGUCUGGUUACUAUACAACCUACUACCUGA,0.493 ± 0.076
4,GGAGACCUUACUAAAGAACCUACUACCUCA,0.0599 ± 0.013
5,CCUCUGGAUACUAUACAACCUAGUAGCUCA,0.172 ± 0.058
6,GCUCUGGAUACUAUACUACCAACUACCUCA,0.0275 ± 0.0065
7,GGAGACCAUAGCUAUACAACCUACUACCUCA,1.07 ± 0.082
8,GGAGUGGAAACUAUACUACCUACUACCUCA,0.854 ± 0.065
9,GGUCUGUGAUACUAUACAACCUACUACCUCA,1.83 ± 0.11
10,GGAGACCAUAGUAAACAACCUACUACCUCA,0.137 ± 0.032
11,GGAGACCAUACAAUACUACCUACUACCUCA,0.146 ± 0.035
12,GGAGACCUAUGUAUACUACCUACUACGUCA,0.0024 ± 0.0022
13,GGUCUGCAUACUAUACAACCUACUAGCUCA,0.129 ± 0.029
14,GGAGACCAUACAAUACAACCUACUACCUGA,0.517 ± 0.074
15,GGAGACGAUACUAUACAACCUACUUCGUCA,0.15 ± 0.041
16,GGAGACCUAUCUGUACAACCUACUACCUCA,0.249 ± 0.025
17,GGUCUGGUUACUAUACAACCUUCUACCUCA,0.746 ± 0.038
18,GGAGACCUAACAAUACAAGCUACUACCUCA,0.399 ± 0.12
19,GCUCUGGAUACUAUACAACCACUACCUCA,0.0144 ± 0.0047
20,GGAGACCAUACUAUACAACCAUCUACCUCA,0.0225 ± 0.0065
